Results on 44 sequences are retold here after the supplement of paper PMC11417369.

± gives the standard deviation of the averaged measurements. Some of the results follow.

For this experiment, the system named is PfAP2-I AP2 domain 3 (GST-tagged). The experiment is described as follows: gcPBM binding intensity (ln(normalized median fluorescence intensity)); higher = stronger DNA binding. The gist of the method: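 GST-fused DNA-binding domains of P. falciparum, expressed in E. coli, were applied at about 25 μg on average for 1 h to an Agilent 4 × 180k array of primer-extended double-stranded 36-bp intergenic genomic probes and negative controls. Binding intensity is the highest Masliner-normalised natural-log median intensity across replicate spots of either probe orientation, measured with Alexa488 anti-GST antibody and a 488 nm scan.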
Turning to “GAATATAAAAAAGAATGTACTTGAACAGTCCTAAAA [XGTACX_site745]”, the “gcPBM binding intensity (ln)” value stood at 7.45 ± 0.75.

Regarding “TTTTGTTAGTTTTTTTTCTTATATTACATTTTCACG [CACACA_negctrl_site1466]”, the “gcPBM binding intensity (ln)” value was found to be 7.78 ± 0.76. For “TTTTTTATATTAAATGAAGAATATACAAAATTTTAA [CACACA_negctrl_site558]” the value was 7.62 ± 0.28; for “ATGTAGTCTCAAGACTGTACAAACAAGTAAATAAAA [XGTACX_site4120]”, 7.76 ± 0.74. For the sequence “AAGGAGAAATAAATATTAAAAAATTTATATATATAT [CACACA_negctrl_site1801]”, the “gcPBM binding intensity (ln)” value amounted to 9.01 ± 0.35. Then “TTCTTTTTTAACAACAAAAAAAAAAAAAAAAAAAAA [TGCATGCA_negctrl_site87]”, with 8.26 ± 1. Then “TAATATTGCAAATATAAAAAAAAATAAACCATATAT [XGTACX_negctrl_site458]”, with 8.17 ± 0.48; and “TTTTTTGCTTTCAACACACATACAATCTATATAATC [CACACA_site4125]”, with 8.01 ± 0.75; and “TAAACCTGTAGAGATGCATGCATTGTTAACATGGTG [TGCATGCA_site515]”, with 7.85 ± 0.76. For “AAAAAATTGACTAATGCACACAATTACATATATATA [CACACA_site1689]” the value was 10.5 ± 0.44; for “AATTGTTCTATGATTTGTACACACTTTTTTTTAAAA [XGTACX_site5984]”, 8.15 ± 0.52. In the case of “ATTATAAATACACGCACACACACTTATATATATATA [CACACA_site5776]”, the “gcPBM binding intensity (ln)” value turned out to be 9.48 ± 0.31. For “CAATTTTTCTATCATTGTACTTTTATATAATAGTGT [XGTACX_site1810]” the value was 7.79 ± 0.49; for “CATTATAAAAAATAAAAAAGAAATAATTGTATATGC [CACACA_negctrl_site478]”, 7.77 ± 0.68; for “ATGAAATATATTATATGTACATATTTATTTTTTATA [XGTACX_site7319]”, 7.59 ± 0.3. On to “ATTTTTTACGTATAGTACAAAGTTTTATGATACATA [CACACA_negctrl_site965]”, for which the “gcPBM binding intensity (ln)” value worked out at 7.62 ± 0.57. Then “AAATAGTAAATAAGGGGTACAAAAAAAAAAAAAAAA [XGTACX_site8362]”, with 8.15 ± 0.37; and “AAATGCTAAAAATAGAGTACAGATAACGAAAAGTGT [XGTACX_site8830]”, with 8.38 ± 0.57. On to “TTTTTATTTAATATTTTAAAAAAAAATCATTTTTAA [XGTACX_negctrl_site207]”, for which the “gcPBM binding intensity (ln)” value is 7.24 ± 0.52. Then “TATATAGTAATATATACACACACTTGTCTTGTAAAA [CACACA_site990]”, with 7.62 ± 0.52; and “TTATAAAAATAATATCGTACAAATGATAAAGATTAA [XGTACX_site4893]”, with 7.67 ± 0.47. For “ACATATATATATATATATAATATTTTATATTTATTA [CACACA_negctrl_site713]” the value was 7.97 ± 0.41; for “TGAATTCGTCAAAAGCGTACATATAATATCTTCTTG [XGTACX_site8842]”, 7.79 ± 0.58; for “ATATTTTTTTATAAATGTACAAAAATAATATTGCAT [XGTACX_site7399]”, 7.89 ± 0.39. Consider “AAAATAATGTTTATATGTACATATATATATATATAT [XGTACX_site8815]”, for which the “gcPBM binding intensity (ln)” value amounted to 9.28 ± 0.37.

In the case of “CCATTTACCCTTGCCATGCACACTTTTTTATAGAAA [CACACA_site3505]”, the “gcPBM binding intensity (ln)” value worked out at 8.79 ± 0.6. Then TATCTTATTTTAAAAGTGCATGGAAAGGGGTTTTTG, with 8.79 ± 0.3; and “TGTATAAGTGCCGTTATACACACGTTATATAAATAT [CACACA_site438]”, with 8.47 ± 0.34; and “TATATATACATATACACACACACACCCATATATATA [CACACA_site2246]”, with 8.37 ± 0.71. On to “ATAAATTTATATACTTGTACATATATATATTACATA [XGTACX_site6697]”, for which the “gcPBM binding intensity (ln)” value was 7.92 ± 0.38. For “ACTATCATTTTTTTAACACACAAAAAAAATAAAATA [CACACA_site3519]” the value was 8.08 ± 0.24; for “TTTTAGCACTTATTATAAGATATCAAAAAGATGGGT [XGTACX_negctrl_site325]”, 8.76 ± 0.092; for “TTTGAAATAAAAAGGTGTACACTCGATTAATAAATA [XGTACX_site6943]”, 8.07 ± 0.33. For “AAATAATATATGAATGCACACAGTAAAAATTAAAGA [CACACA_site2252]”, the “gcPBM binding intensity (ln)” value is 9.31 ± 0.22. Then “AAAATTTCAATAAATACACACATATATATATATATT [CACACA_site1685]”, with 7.63 ± 0.45. For “AAGAATACACCACGCACACACACTTGAGAAAAAATA [CACACA_site3828]” the value was 8.36 ± 0.29; for “AAGATTAATATTTTATGTACATATGTAATATATATG [XGTACX_site4367]”, 7.8 ± 0.35; for “ATATTTTTATGATGTATCCAAGAAATGGAACTATAT [CACACA_negctrl_site1268]”, 7.71 ± 0.35. Then “ATTTTAGATATCCTGCGTACACAAATTGCTTTATTT [XGTACX_site7149]”, with 8.47 ± 0.61. For the sequence “ATATATACCTAAGACACACACATATAGATTTATATA [CACACA_site6498]”, the “gcPBM binding intensity (ln)” value turned out to be 7.84 ± 0.58.

As to “TTCTTTGTGGTATAGATACACACTATATTAATATGA [CACACA_site2150]”, the “gcPBM binding intensity (ln)” value turned out to be 8.19 ± 0.49.

Regarding “TTTAATAATATAATGTGTACTTAAAAATTTATATAT [XGTACX_site5821]”, the “gcPBM binding intensity (ln)” value worked out at 7.86 ± 0.31.

“TCATAAATTAATAATACATGCATAATATTAAAATGT [TGCATGCA_site5]”: the “gcPBM binding intensity (ln)” value came out at 7.8 ± 0.51.

Consider “AAAAATATATAAGAGAGTACATAAAATAAATTAATT [XGTACX_site1534]”, for which the “gcPBM binding intensity (ln)” value came out at 7.67 ± 0.69.
